# The other results are listed elsewhere or left out.
# B1: Epa9 (Candida glabrata), CAGL0A01386g (protein)
# chain: MGSSHHHHHHSSGLVPRGSHMDITPFAHYPRPEGCSSPPNAVSVGLHMDLYNYPYLYVKNPRTGFTNDTDSDADGETDGDSAGGIEGRAGQCWNPEYQDPNFPRYGYKKYGSFGSSDHVNGKISWDHNEFKEGCKPIMARLPTAYNYPAKITFSNFTMVLSGYFKPKSTGLYKFEIHADDFILFNFGSKNAFECCNREESIDNFGPYVAYAMWPNEADQELEVYLFEDSYYPIRLFYNNRDYHSKFMVGFYPPNTEEITYDFDGYLYMLDDTGNECKDSIRYKTVCDD
# Tests used:
# Experiment in all cases: glycan array binding signal (z-score within array); higher = stronger binding
# Details in all cases: glycan notation: IUPAC condensed, linker removed
# [1] = molecular target: Gal6S(b1-4)Glc
# Summary of the method: (§1)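 Glycan array binding is given as a within-array Z-score, which can be read as non-binding when negative. The arrays, 3228 of them, came from the Consortium for Functional Glycomics database and were retained only where the protein sequence was available. Z-scores were averaged across arrays of the same protein sequence at different concentrations or buffers and across linkers.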
# [2] = molecular target: Gal6S(b1-4)Glc6S
# Summary of the method: as §1
# [3] = molecular target: Gal6S(b1-4)GlcNAc
# Summary of the method: as §1
# [4] = molecular target: Gal6S(b1-4)GlcNAc6S
# Summary of the method: as §1
# [5] = molecular target: GalNAc(a1-3)Gal
# Summary of the method: as §1
# [6] = molecular target: GalNAc(a1-3)GalNAc
# Summary of the method: as §1
# [7] = molecular target: GalNAc(a1-3)GalNAc(b1-3)Gal(a1-4)Gal(b1-4)Glc
# Summary of the method: as §1
# [8] = molecular target: GalNAc(a1-3)GalNAc(b1-3)Gal(a1-4)Gal(b1-4)GlcNAc
# Summary of the method: as §1
# [9] = molecular target: GalNAc(b1-3)Gal
# Summary of the method: as §1
# [10] = molecular target: GalNAc(b1-3)Gal(a1-4)Gal(b1-4)GlcNAc
# Summary of the method: as §1
# [11] = molecular target: GalNAc(b1-3)Gal(a1-4)Gal(b1-4)GlcNAc(b1-3)Gal(b1-4)Glc
# Summary of the method: as §1
# [12] = molecular target: GalNAc(b1-3)Gal(a1-6)Gal(b1-4)Glc
# Summary of the method: as §1
# [13] = molecular target: GalNAc(b1-3)GalNAc
# Summary of the method: as §1
# [14] = molecular target: GalNAc(b1-3)GlcNAc
# Summary of the method: as §1
# [15] = molecular target: GalNAc(b1-4)Gal(b1-4)Glc
# Summary of the method: as §1
# [16] = molecular target: GalNAc(b1-4)GlcNAc
# Summary of the method: as §1
# [17] = molecular target: GalNAc(b1-4)GlcNAc(b1-2)Man
# Summary of the method: as §1
# [18] = molecular target: GalNAc(b1-4)GlcNAc(b1-2)Man(a1-3)[GalNAc(b1-4)GlcNAc(b1-2)Man(a1-6)]Man(b1-4)GlcNAc(b1-4)GlcNAc
# Summary of the method: as §1
# [19] = molecular target: GalNAc(b1-4)GlcNAc(b1-3)GalNAc(b1-4)GlcNAc
# Summary of the method: as §1
# [20] = molecular target: GalNAc(b1-4)GlcNAc6S
# Summary of the method: as §1
# [21] = molecular target: GalNAc(b1-6)GalNAc
# Summary of the method: as §1
# [22] = molecular target: GalNAc3S(b1-4)GlcNAc
# Summary of the method: as §1
# [23] = molecular target: GalNAc3S(b1-4)GlcNAc3S
# Summary of the method: as §1
# [24] = molecular target: GalNAc3S(b1-4)[Fuc(a1-3)]GlcNAc
# Summary of the method: as §1
# [25] = molecular target: GalNAc4S6S(b1-4)GlcNAc
# Summary of the method: as §1
# [26] = molecular target: GalNAc6S(b1-4)GlcNAc
# Summary of the method: as §1
# [27] = molecular target: Glc(a1-4)Glc
# Summary of the method: as §1
# [28] = molecular target: Glc(a1-4)Glc(a1-4)Glc(a1-4)Glc
# Summary of the method: as §1
# [29] = molecular target: Glc(a1-6)Glc(a1-6)Glc
# Summary of the method: as §1
# [30] = molecular target: Glc(a1-6)Glc(a1-6)Glc(a1-6)Glc
# Summary of the method: as §1
# [31] = molecular target: Glc(b1-4)Glc
# Summary of the method: as §1
# [32] = molecular target: Glc(b1-6)Glc
# Summary of the method: as §1
# [33] = molecular target: GlcA(b1-3)Gal
# Summary of the method: as §1
# [34] = molecular target: GlcA(b1-3)GlcNAc
# Summary of the method: as §1
# [35] = molecular target: GlcA(b1-6)Gal
# Summary of the method: as §1
# [36] = molecular target: GlcA3S(b1-3)Gal(b1-4)GlcNAc(b1-2)Man
# Summary of the method: as §1
# [37] = molecular target: GlcA3S(b1-3)Gal(b1-4)GlcNAc(b1-3)Gal(b1-4)Glc
# Summary of the method: as §1
binder,measurement,setting,value
B1,glycan array binding signal (z-score),[1],0.28
same,glycan array binding signal (z-score),[2],1.07
same,glycan array binding signal (z-score),[3],0.445
same,glycan array binding signal (z-score),[4],0.589
same,glycan array binding signal (z-score),[5],-0.486
same,glycan array binding signal (z-score),[6],-0.465
same,glycan array binding signal (z-score),[7],-0.468
same,glycan array binding signal (z-score),[8],-0.455
same,glycan array binding signal (z-score),[9],-0.456
same,glycan array binding signal (z-score),[10],-0.367
same,glycan array binding signal (z-score),[11],-0.249
same,glycan array binding signal (z-score),[12],-0.468
same,glycan array binding signal (z-score),[13],-0.471
same,glycan array binding signal (z-score),[14],-0.486
same,glycan array binding signal (z-score),[15],-0.444
same,glycan array binding signal (z-score),[16],-0.449
same,glycan array binding signal (z-score),[17],-0.396
same,glycan array binding signal (z-score),[18],-0.408
same,glycan array binding signal (z-score),[19],-0.472
same,glycan array binding signal (z-score),[20],-0.469
same,glycan array binding signal (z-score),[21],-0.474
same,glycan array binding signal (z-score),[22],-0.457
same,glycan array binding signal (z-score),[23],-0.441
same,glycan array binding signal (z-score),[24],-0.453
same,glycan array binding signal (z-score),[25],-0.45
same,glycan array binding signal (z-score),[26],-0.479
same,glycan array binding signal (z-score),[27],-0.47
same,glycan array binding signal (z-score),[28],-0.452
same,glycan array binding signal (z-score),[29],-0.471
same,glycan array binding signal (z-score),[30],-0.458
same,glycan array binding signal (z-score),[31],-0.467
same,glycan array binding signal (z-score),[32],-0.483
same,glycan array binding signal (z-score),[33],-0.473
same,glycan array binding signal (z-score),[34],-0.49
same,glycan array binding signal (z-score),[35],-0.198
same,glycan array binding signal (z-score),[36],-0.48
same,glycan array binding signal (z-score),[37],-0.456

# Reference: the supplement of paper PMC8728848
